The other results are listed elsewhere or left out. Values were computed here from the reads of four pooled replicates and scatter widely.

This experiment concerns the target T1, Pho4 (S. cerevisiae) (UniProt P07270).
T1 sequence: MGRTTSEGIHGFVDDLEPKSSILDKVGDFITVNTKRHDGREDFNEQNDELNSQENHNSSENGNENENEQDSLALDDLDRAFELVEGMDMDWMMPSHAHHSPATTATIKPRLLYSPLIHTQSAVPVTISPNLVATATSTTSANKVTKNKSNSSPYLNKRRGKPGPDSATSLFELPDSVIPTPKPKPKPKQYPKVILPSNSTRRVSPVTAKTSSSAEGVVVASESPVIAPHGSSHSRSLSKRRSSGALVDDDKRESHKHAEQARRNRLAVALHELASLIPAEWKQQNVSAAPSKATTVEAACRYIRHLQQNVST
Briefly: relative binding free energy (BET-seq); higher = weaker binding. The conditions noted are these: reference: library average.
On to GGGATCACGTGTGTGC, for which the “relative binding free energy” value stood at 0.962 kJ/mol. The figure for AAATGCACGTGTGTAT is -0.167 kJ/mol. On to TAGGCCACGTGCTGGT, for which the “relative binding free energy” value is -0.879 kJ/mol.

For AGAGGCACGTGCGTTA, the “relative binding free energy” value was -1.09 kJ/mol. With GTTTTCACGTGTTGAA the figure was 1.17 kJ/mol; with TCTTGCACGTGTTTGT, 0.251 kJ/mol. On to ATCGTCACGTGGTTTG, for which the “relative binding free energy” value was 0.628 kJ/mol. Turning to CGATGCACGTGATAGT, the “relative binding free energy” value stood at 0.669 kJ/mol. The figure for GCGAGCACGTGGGAGG is -1.42 kJ/mol; for ATTGGCACGTGAGGGG it is 1.05 kJ/mol; for GCTGTCACGTGGATGG it is 0.377 kJ/mol.

With AACAGCACGTGGTGGT, the “relative binding free energy” value was -1.09 kJ/mol. The figure for CCGTTCACGTGGGGTA is 0.753 kJ/mol; for TGTGCCACGTGGAAGG it is -0.335 kJ/mol. The figure for GGGTACACGTGTGGTG is 0.711 kJ/mol. TTGTTCACGTGTTGTG: the “relative binding free energy” value stood at 1.05 kJ/mol. Turning to GAATGCACGTGTATAT, the “relative binding free energy” value was 0.544 kJ/mol. With TTTGTCACGTGGTACG the figure was 0.126 kJ/mol; with ATTGCCACGTGGCAGG, -0.251 kJ/mol; with TCGTGCACGTGTCGGT, -0.377 kJ/mol. With TAGCGCACGTGTGGGC the figure was -0.293 kJ/mol; with CTTAGCACGTGATTTT, 0.126 kJ/mol; with TGAGACACGTGTATGG, -0.126 kJ/mol. TATGGCACGTGATGGG: the “relative binding free energy” value was -0.126 kJ/mol. Turning to TCGGCCACGTGGATGG, the “relative binding free energy” value was -0.0418 kJ/mol.

As for TAGGTCACGTGTGGTT, the “relative binding free energy” value was determined as 0.586 kJ/mol. The figure for AGTTGCACGTGTTCTT is -0.167 kJ/mol; for TATGGCACGTGTTTTC it is -0.628 kJ/mol. Regarding TACTTCACGTGAAGTT, the “relative binding free energy” value was 1.46 kJ/mol. With GAGGGCACGTGCAGGA the figure was -0.711 kJ/mol; with GAATTCACGTGTGGGG, 1.42 kJ/mol; with GAACGCACGTGTAGTG, 0.502 kJ/mol. The figure for GGGGGCACGTGAATTA is 0.251 kJ/mol; for GTCAGCACGTGAGGGG it is 0.335 kJ/mol; for TTCATCACGTGTTTTT it is 0.837 kJ/mol. The figure for TGCCTCACGTGTGATG is 1.3 kJ/mol; for TCTGGCACGTGAGTAG it is 0.335 kJ/mol.

As for TCTGGCACGTGTATAG, the “relative binding free energy” value was -0.377 kJ/mol. With GGGCACACGTGAAGGT the figure was 1.13 kJ/mol; with CGTAGCACGTGAGAGT, 0.879 kJ/mol. GTACTCACGTGAGGGC: the “relative binding free energy” value was 1.97 kJ/mol.

For the sequence AAGGGCACGTGTGGTC, the “relative binding free energy” value was determined as 0.167 kJ/mol. In the case of TCGTGCACGTGAATTG, the “relative binding free energy” value amounted to 0.711 kJ/mol. The figure for TCTTTCACGTGTTAAT is 0.46 kJ/mol. As for TTAGTCACGTGTGATT, the “relative binding free energy” value was 0.628 kJ/mol. With GGTGGCACGTGACTGT the figure was 0.628 kJ/mol; with ATTGGCACGTGCATGG, -1 kJ/mol; with TGGGCCACGTGTGGAG, -0.209 kJ/mol. The figure for GGCGGCACGTGCCAGG is -0.335 kJ/mol; for TTTGTCACGTGCACGG it is -0.0418 kJ/mol. With TGTTACACGTGGACTG the figure was 0.837 kJ/mol; with GTTCGCACGTGGTTGT, -0.251 kJ/mol. Regarding TTGCTCACGTGCTGGT, the “relative binding free energy” value worked out at 1.17 kJ/mol.

On to GGTGCCACGTGGTAGA, for which the “relative binding free energy” value was 0 kJ/mol. For TTATTCACGTGAAAGT, the “relative binding free energy” value was 1.34 kJ/mol. With TTGTTCACGTGATGTT the figure was 1.63 kJ/mol; with GGTTTCACGTGGGTAA, 1.13 kJ/mol; with GGGATCACGTGAGCTT, 1.55 kJ/mol. For the sequence TAGGGCACGTGTAAGA, the “relative binding free energy” value was found to be 0.209 kJ/mol. The figure for GTCGTCACGTGATTTT is 1.26 kJ/mol; for TGGTGCACGTGGTTAT it is -0.126 kJ/mol. On to TTTTACACGTGCGTCG, for which the “relative binding free energy” value was found to be 0.251 kJ/mol.

Take TTCAGCACGTGGGGGG: the “relative binding free energy” value is -1.09 kJ/mol. For AGAGTCACGTGGATAT, the “relative binding free energy” value was determined as 0.711 kJ/mol.

In the case of TTGATCACGTGGGTGC, the “relative binding free energy” value worked out at 0 kJ/mol.

In the case of TGGTTCACGTGGTGTG, the “relative binding free energy” value worked out at 0.962 kJ/mol. The figure for TGTGTCACGTGGCGAA is -0.126 kJ/mol; for GGGGCCACGTGCATGG it is -0.711 kJ/mol. For AAAGCCACGTGAGGGT, the “relative binding free energy” value turned out to be 0.753 kJ/mol. The figure for TTACGCACGTGTAGTG is -0.0837 kJ/mol; for GTGTGCACGTGGAAAG it is 0.377 kJ/mol.

Take GGGTTCACGTGATCTG: the “relative binding free energy” value was 1.38 kJ/mol.

As for TTGCGCACGTGATGTA, the “relative binding free energy” value is -0.209 kJ/mol.

On to AATTGCACGTGTTGCA, for which the “relative binding free energy” value was determined as 0.753 kJ/mol. The figure for TGGTACACGTGGAGTG is 0.251 kJ/mol; for GATTTCACGTGTGGAT it is 2.05 kJ/mol; for TGTAGCACGTGAGCGA it is 0.377 kJ/mol.

On to GGGTGCACGTGGGGAG, for which the “relative binding free energy” value is -0.251 kJ/mol. For CTAAACACGTGGGTGG, the “relative binding free energy” value was -0.418 kJ/mol. Take GGTTGCACGTGAATGT: the “relative binding free energy” value turned out to be 0.92 kJ/mol. The figure for TGTTTCACGTGGCCGA is 1.55 kJ/mol. With GAGCGCACGTGGTAAG the figure was 0.0418 kJ/mol; with CTGGACACGTGTGTGG, 0.0418 kJ/mol. The figure for ATTGGCACGTGTCTGG is -0.586 kJ/mol. Take CGGGTCACGTGTGTAT: the “relative binding free energy” value came out at 0.335 kJ/mol. With GTTAGCACGTGTTCGA the figure was -0.209 kJ/mol; with ATTTTCACGTGTATGG, 0.711 kJ/mol; with CCAGTCACGTGGTGAG, 1 kJ/mol.

As for ATTCACACGTGGTGGT, the “relative binding free energy” value worked out at 0.544 kJ/mol. With TGAGCCACGTGATGGA, the “relative binding free energy” value was 0.628 kJ/mol. GGTGCCACGTGATTAG: the “relative binding free energy” value was found to be 0.586 kJ/mol. With TAGAACACGTGGTAGG the figure was -0.167 kJ/mol; with AGGGGCACGTGATGGA, 0 kJ/mol; with GGGAGCACGTGGGACA, -0.335 kJ/mol. With TGAGACACGTGCAGGG the figure was 0.335 kJ/mol; with CAAGGCACGTGGGTTT, -0.669 kJ/mol; with GCTATCACGTGGTGGA, 0.251 kJ/mol. The figure for ACGGGCACGTGGCGGT is -0.962 kJ/mol; for AGTTTCACGTGTTCAA it is 0.795 kJ/mol; for AGTTGCACGTGGGTTA it is -0.377 kJ/mol.

ATGTGCACGTGGATTC: the “relative binding free energy” value is -0.209 kJ/mol. The figure for TTTGGCACGTGCCTGT is -0.669 kJ/mol; for ATTTTCACGTGGGAGT it is 0.251 kJ/mol; for TATGGCACGTGGGCGC it is -0.544 kJ/mol. Take GGTTGCACGTGCTACG: the “relative binding free energy” value was 0.544 kJ/mol.

As for TCTAACACGTGGGGTG, the “relative binding free energy” value was -0.209 kJ/mol.

Consider GGCCGCACGTGGTGGT, for which the “relative binding free energy” value is -0.418 kJ/mol.

GTTATCACGTGTGAGT: the “relative binding free energy” value came out at 1.21 kJ/mol. The figure for TCGGGCACGTGTTTAG is 0.335 kJ/mol; for CGTGGCACGTGGTAGT it is -1.13 kJ/mol.

In the case of ATATTCACGTGACGTT, the “relative binding free energy” value came to 0.795 kJ/mol. As to TGGTCCACGTGTAGTA, the “relative binding free energy” value amounted to 0.502 kJ/mol. Take GGTTGCACGTGGTATC: the “relative binding free energy” value came out at 0.335 kJ/mol. The figure for TTTAACACGTGGGTAA is -0.586 kJ/mol; for GTTCTCACGTGGATAG it is 1.13 kJ/mol; for TCAGTCACGTGGTGAT it is 0.0418 kJ/mol. The figure for GTGTTCACGTGTTATC is 1.09 kJ/mol. With GTGATCACGTGTGGAG, the “relative binding free energy” value is 0.879 kJ/mol. With AGGCGCACGTGAGGGA the figure was 0.209 kJ/mol. The figure for TGTTGCACGTGTCGTA is -0.293 kJ/mol; for CAGGCCACGTGGTAGG it is -0.418 kJ/mol; for AGATACACGTGTTATT it is -0.209 kJ/mol. Consider CGGGGCACGTGGATTA, for which the “relative binding free energy” value is -0.418 kJ/mol. With TACTGCACGTGTGGTA the figure was -0.377 kJ/mol; with GGGGGCACGTGGTTAA, -0.377 kJ/mol; with TTTATCACGTGATAGA, 1 kJ/mol. As for TATATCACGTGGGTTG, the “relative binding free energy” value was 0 kJ/mol. On to GTATCCACGTGGGTAG, for which the “relative binding free energy” value is -0.418 kJ/mol.

On to GTTTGCACGTGCTCGG, for which the “relative binding free energy” value is -0.586 kJ/mol. Turning to TTAGGCACGTGGAAGA, the “relative binding free energy” value was determined as 0.167 kJ/mol.

In the case of CAGAACACGTGGGGGT, the “relative binding free energy” value is -0.544 kJ/mol. Turning to GTTGGCACGTGGGCGG, the “relative binding free energy” value was -1 kJ/mol. As for TGGCGCACGTGATGCT, the “relative binding free energy” value stood at 0.0837 kJ/mol. As for TGGCGCACGTGTTAGA, the “relative binding free energy” value was 0.126 kJ/mol. The figure for GTCTGCACGTGATATG is 0.586 kJ/mol.

For AGGAACACGTGTTGGA, the “relative binding free energy” value is -0.46 kJ/mol.

With TGGTGCACGTGTTCGC, the “relative binding free energy” value was -0.0418 kJ/mol. The figure for TGTGGCACGTGATGCT is -0.502 kJ/mol; for AAGCTCACGTGGATTT it is 1.3 kJ/mol; for GTTTTCACGTGGATGT it is 1.76 kJ/mol. As for TCTTGCACGTGTAGGC, the “relative binding free energy” value came out at 0.502 kJ/mol. Take GTGGTCACGTGTGAAC: the “relative binding free energy” value turned out to be 1.59 kJ/mol. With GGGGGCACGTGCCTGA the figure was -0.628 kJ/mol. In the case of CTTCTCACGTGTGTGG, the “relative binding free energy” value was found to be 1.42 kJ/mol.

With TTATGCACGTGGCTTG, the “relative binding free energy” value was -0.628 kJ/mol.

Consider GGTGGCACGTGTAAGG, for which the “relative binding free energy” value stood at 0.0837 kJ/mol.
